Experimental data as given in the supplement of paper PMC3334620.
In all, about 33,000 sequences were measured (“E-score (-0.5 to 0.5)”: median about -0.04, highest 2% from about 0.36 on). The list shows a part of the results.

Target: T1, Hmlalpha2 (UniProt P0CY09)
T1 sequence: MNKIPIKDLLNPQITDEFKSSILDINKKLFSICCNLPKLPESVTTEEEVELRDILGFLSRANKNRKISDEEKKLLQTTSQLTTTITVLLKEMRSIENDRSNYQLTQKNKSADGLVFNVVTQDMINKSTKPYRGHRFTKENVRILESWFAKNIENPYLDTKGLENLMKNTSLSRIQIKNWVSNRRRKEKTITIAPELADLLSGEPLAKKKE
Experiment: PBM E-score (8-mer binding enrichment) (E-score (-0.5 to 0.5)); higher = stronger / more preferred TF binding; most listed sequences are background and not binding sites
Conditions: protein concentration: 200 nM; construct: GST-full length
Procedure: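 Universal 'all 10-mer' protein binding microarrays (Agilent AMADID 015681) probed with GST-tagged S. cerevisiae TFs (full-length or DBD) made by in vitro transcription/translation (PURExpress), about 100-200 nM. Bound TF was detected with fluorescent anti-GST. Each ungapped 8-mer (which stands for itself and its reverse complement) is scored by the PBM enrichment score (E-score), a modified Wilcoxon-Mann-Whitney statistic from -0.5 to +0.5, computed with the Universal PBM Analysis Suite. Scale: above 0.35 generally sequence-specific binding.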

Sequence	PBM E-score
ACCTATCT	-0.0687
AGCCCGAC	-0.218
ACTGTTTC	-0.0637
GACCCCTA	-0.294
GATCGAGC	-0.136
CCCACGTC	0.00442
CTTGCACA	0.0652
AATGAGGG	-0.128
GACAAAGC	-0.0561
CGCGGCAG	-0.165
GCCAGTCC	-0.35
AGAGCCAT	-0.0983
CTGCACTC	-0.131
AGACCCCG	-0.0968
CAGTTCCG	-0.244
ATGAGTCC	-0.0686
ATAAGCGC	0.0211
AAATTTGG	0.028
CTAGTGGC	-0.185
AATAGGCC	-0.0703
AACAGGTA	0.161
CGTCGAAC	0.0323
AGACAAAC	0.0402
CTTTAATA	0.147
CTACCGAG	-0.267

Sequence	PBM E-score
ACATGCAG	0.316
AAGCGTGA	-0.0159
CCGGATGA	-0.136
AGCAAGCC	-0.273
CCTCGACC	-0.136
CTCAGCGA	-0.0559
AACAAACT	0.272
CCACCCGG	-0.214
ACTCAAAG	0.0634
CAAACGAA	0.0785
ATGAGGTC	-0.194
AGTGGTCA	-0.302
GCCATCGC	-0.26
ATGAGGAC	-0.169
CGTTTGCC	-0.0866
AGATAATG	0.149
TGAAAAAA	0.0221
CACGCCGG	-0.102
ATTATTAA	0.169
ACAATCGA	0.0699
ACGCGCGG	0.067
CTCATAGA	-0.134
ACAAAGTG	-0.0986
TATACTGA	0.149
CACATGGA	0.197

Sequence	PBM E-score
TGATTCAA	0.14
ATGAATAC	0.236
TCGCCCAA	-0.0523
CAACCGGG	-0.128
AAGTGCAA	-0.0589
TGTGATAA	0.319
ATATGATG	0.0609
GTTGTAAA	0.385
TCCTAAGA	-0.132
ATGCACAA	0.0934
AAACATGG	0.349
AGGGCAGC	-0.199
ACCAGCGC	-0.189
GCTTGATA	0.00761
GAATAAAA	0.247
AGTCACCC	-0.298
CGTCGGTA	-0.018
ATATCGGG	-0.163
TCAAATGA	-0.102
AATGAAGT	0.0316
AACGGGAA	-0.00155
GCATACAA	0.108
GCATCCCC	-0.344
ACCACGTG	0.137
ACGTGTAG	0.429

Sequence	PBM E-score
ACGGCGAG	0.0639
GGACTCTA	-0.0649
ACTCTAAA	0.0412
CTGAAGTC	-0.223
CATAATCG	-0.13
ATTAAGTC	0.189
AAGAGGTG	-0.00734
CTACCGCA	-0.215
AGGTATTA	0.164
ACTACTAG	0.0964
AGCGCGCT	0.0199
GCTTGCCA	-0.0301
TCGGCGAA	-0.26
AGGTGAGG	-0.36
GCCCTGCC	-0.203
CCCGGCAA	-0.0383
AGAAGTCC	-0.183
CAATACGC	0.265
CTGAACGC	-0.0206
CCGGCCGG	-0.122
GGTGACAA	0.145
GCATCACC	-0.261
TTCCTAAA	0.0359
ATCCAGTG	0.0457
CCGCGTTA	0.336

Sequence	PBM E-score
CTCCTGGA	-0.261
TAATTCTA	0.19
GCGCTCGA	-0.0541
ACGTCGGG	-0.251
GCCGGACA	-0.109
GATTAGGA	-0.162
CTCAGGAA	-0.0715
AGTTTAAG	0.0532
TTAAGCAA	0.147
CTGAGACA	-0.136
AGGAACCT	0.00098
ATGTTATA	0.418
ACTCGCTC	0.0551
ATAGGCAA	-0.0747
GACTGTGA	-0.0129
AGCCCATA	-0.018
AGCTCTTA	0.0441
CCATCTCC	-0.219
GGCCGCCA	-0.256
AGGATTCC	-0.175
CTAGATGC	-0.145
CGACTCGA	-0.0823
CGTCGGAA	0.135
AGGCTTAA	-0.135
AAATGAAA	0.183

Sequence	PBM E-score
CTCCGAAA	-0.116
CGCAAAGC	-0.156
ACGAGGGA	-0.0452
GAGATGGA	-0.206
GGTATGTA	0.4
ATCTCCGC	-0.214
CAAGAACA	0.208
CCACTTGC	-0.337
ACCCATCT	-0.0821
CACACGTA	0.271
CCGTTGCG	-0.113
CGGAGGGA	-0.335
GAGAAACA	0.171
GAGTGTGA	0.0212
AAAGCCGC	-0.245
GCAGCGGC	-0.197
ATCCCTAA	-0.265
CGGCCAAC	-0.174
ACCGTCCT	-0.139
AGGTAGTG	-0.0862
AACGATTG	0.165
ACCAGGTA	-0.111
AAATTGGA	0.134
CCTTGGAG	-0.15
ACGGTTAT	-0.0775

Sequence	PBM E-score
CAATGAGA	-0.0807
CGTGACCC	-0.00165
AGTGGCCG	-0.325
CCCATCGC	-0.281
GTTTCTTA	0.0738
ATGTCGGA	0.0661
GCGGGAAA	0.00677
GAATTACA	0.444
CTCTCGCC	-0.323
GGCTGAAA	0.0965
AGATCGAA	-0.0126
TCTAGAGA	-0.201
CGTATTAG	0.263
ATTCATCC	0.128
AAAAGGTT	-0.259
AGATAGTC	-0.0659
CCATAATA	0.00645
CCCTGAGG	-0.0852
CAGTGATC	-0.0129
GCACTCAC	-0.121
GCGAGCGC	-0.0986
GGCTTAAA	-0.0594
